Results from the supplement of paper PMC3334620.
In all, about 33,000 sequences were measured (“E-score (-0.5 to 0.5)”: median about -0.035, highest 2% from about 0.34 on). This is one part of the list.

Target: T1, Mot3 (UniProt P54785)
T1 sequence: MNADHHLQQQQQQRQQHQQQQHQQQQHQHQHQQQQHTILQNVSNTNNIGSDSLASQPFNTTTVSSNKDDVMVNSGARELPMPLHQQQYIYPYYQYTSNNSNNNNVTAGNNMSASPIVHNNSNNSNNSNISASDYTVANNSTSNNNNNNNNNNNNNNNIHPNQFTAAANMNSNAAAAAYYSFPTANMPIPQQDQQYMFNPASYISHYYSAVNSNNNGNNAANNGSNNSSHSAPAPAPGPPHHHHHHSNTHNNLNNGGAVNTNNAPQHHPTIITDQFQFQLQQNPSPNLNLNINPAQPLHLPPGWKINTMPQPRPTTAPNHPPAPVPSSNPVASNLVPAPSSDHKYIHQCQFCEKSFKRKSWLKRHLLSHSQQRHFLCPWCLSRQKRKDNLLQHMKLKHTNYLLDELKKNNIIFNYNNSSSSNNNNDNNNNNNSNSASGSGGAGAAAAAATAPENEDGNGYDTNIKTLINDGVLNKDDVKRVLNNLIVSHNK
Assay: PBM E-score (8-mer binding enrichment) (E-score (-0.5 to 0.5)); higher = stronger / more preferred TF binding; most listed sequences are background and not binding sites
Conditions: protein concentration: 200 nM; construct: GST-full length
Method: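 Universal 'all 10-mer' protein binding microarrays (Agilent AMADID 015681) probed with GST-tagged S. cerevisiae TFs (full-length or DBD) made by in vitro transcription/translation (PURExpress), about 100-200 nM. Bound TF was detected with fluorescent anti-GST. Each ungapped 8-mer (which stands for itself and its reverse complement) is scored by the PBM enrichment score (E-score), a modified Wilcoxon-Mann-Whitney statistic from -0.5 to +0.5, computed with the Universal PBM Analysis Suite. Scale: above 0.35 generally sequence-specific binding.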

Sequence	PBM E-score
GACCGAGC	-0.227
ACTACTCT	0.0207
ACGTGACA	0.18
ACTCAATA	0.0994
GAATCGAA	0.122
CATGTACG	0.239
CAGTCAGC	-0.00114
CTTCAAAA	0.031
AAAATGGA	0.119
AATAGGAC	0.0837
AATCGTAC	0.0321
ATAGTATA	0.0519
GCAATAAC	0.0995
GACCGACA	-0.125
GCTTTATA	-0.0653
AGTGTCAC	-0.136
AACACTAT	0.146
GGATGACC	-0.282
AGAGTAAG	0.0887
CCGTGCAA	0.125
ATGAAACA	0.137
TACAACTA	0.0111

Sequence	PBM E-score
AGCAGCAC	-0.117
GACCAGCC	-0.26
CTGTCGTC	-0.202
AGGGGTCG	0.0904
CTGCTGAA	0.0926
ACAGAAAG	0.0448
CTCAAAGA	0.0629
ATATGCAT	-0.0664
AGCACATG	0.182
CAGGTCCC	-0.0883
GTATAGTA	0.00756
AGAGTGTC	-0.123
ACGGCTAA	-0.125
GCAGTCGA	-0.116
TAACTTAA	0.194
CGCGCCCA	-0.275
TATCAACA	0.284
GGCGGTGA	-0.0878
ACCTTTAC	0.226
GAAATAAC	0.167
CACGAGTG	0.0755
AACAGTGC	0.0841

Sequence	PBM E-score
CTTAATAA	0.0282
GAGACAAA	-0.105
ACCGGACG	0.0928
CGTATTGA	0.0966
AAGAATGC	-0.117
ACCCTCCG	-0.245
CTGGTAGC	-0.0556
CATAGTCG	3e-05
ATATGGAA	-0.226
CGTCAAAA	0.163
GTGGTAAC	0.166
AGCGCTTG	-0.185
GAATATAC	0.0313
CGATTGGA	-0.127
GTCGTCAA	-0.0783
ATGAAGTA	-0.0752
AGTTCAGC	-0.141
CCTCACAA	0.087
AATCTCGT	-0.0741
TAAAAATA	0.276
AACAACAG	0.24
CAAGGACA	0.0403

Sequence	PBM E-score
AATCGACG	-0.053
ATATCTTG	0.0756
ACTATAAA	0.0694
GGGCACTA	0.0732
ATTACAGG	0.359
ATGACAGA	0.0811
AACTACGT	0.191
GTTAGCCA	-0.136
ACATATAA	0.275
CGCAATAA	0.025
ATGTGTGC	0.0138
CTTGCGGA	-0.223
TAGTGCAA	0.0916
CATAACGA	-0.0195
AAGGGAAC	-0.0894
ACGGCCGT	-0.211
GGACCGAA	0.0614
ATCTAAGA	-0.0648
ACGTAACA	0.262
GAGGGACC	-0.298
